Data reported in US20260216242A1, “ALPP-SPECIFIC VARIANT ANTIGEN BINDING MOLECULES” (ALMAC DISCOVERY LIMITED, priority 2022, published 2026).

Key:
[1] = target: T1, hALPI (Homo sapiens, UniProt P09923); assay: BLI binding to ALPI His; conditions: VHH-hFc
T1 sequence (P09923 with tags, fused parts or gaps): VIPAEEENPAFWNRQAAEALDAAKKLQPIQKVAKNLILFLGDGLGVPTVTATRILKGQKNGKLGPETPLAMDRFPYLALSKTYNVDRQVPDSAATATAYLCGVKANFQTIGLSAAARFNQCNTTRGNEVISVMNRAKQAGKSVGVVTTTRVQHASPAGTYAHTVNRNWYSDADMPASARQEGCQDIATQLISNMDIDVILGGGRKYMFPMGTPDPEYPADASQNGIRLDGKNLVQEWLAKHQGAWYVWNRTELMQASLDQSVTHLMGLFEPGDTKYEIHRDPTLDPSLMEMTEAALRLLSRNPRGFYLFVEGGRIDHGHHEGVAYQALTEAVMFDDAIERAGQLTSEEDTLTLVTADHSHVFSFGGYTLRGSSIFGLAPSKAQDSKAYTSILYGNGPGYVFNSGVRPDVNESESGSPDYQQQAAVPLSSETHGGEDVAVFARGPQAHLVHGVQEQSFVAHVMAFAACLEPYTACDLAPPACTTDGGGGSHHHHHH
Procedure: (§1) Binding kinetics were determined using the Biolayer Interferometry (BLI) Octet K2 system (Sartorius). Human ALPP, ALPPL2, ALPL (each fused with a cysteine stabilised leucine zipper) and ALPI, (SEQ ID NO: 265, SEQ ID NO: 266 and SEQ ID NO: 267 and SEQ ID NO: 264 respectively) were immobilised in sodium acetate pH5 buffer to AR2G sensors using amine coupling. All assays were conducted in PBS with a plate temperature of 25° C. Ka (M^−1s^−1), Kd (s^−1) and KD (nM) values were determined using Octet Data Analysis High Throughput software (ForteBio) for Biolayer Interferometry.
(§2) Binding kinetics were determined using the Biolayer Interferometry (BLI) Octet K2 or R4 system (Sartorius). Human ALPP, ALPPL2 and ALPL all fused with a disulphide stabilised leucine zipper (SEQ ID NO: 265, SEQ ID NO: 266, and SEQ ID NO: 267) and ALPI His (SEQ ID NO: 264) were used in BLI experiments. For KD apparent measurements, the ALPP proteins were immobilised in sodium acetate pH5 buffer to AR2G sensors using amine coupling. To measure 1:1 interactions, AHC biosensors were used to immobilise Fc-fused proteins. All assays were conducted in HBS-EP with a plate temperature of 25° C. Ka (M^−1s^−1), Kd (s^−1) and KD (nM) values were determined using Octet Data Analysis High Throughput software (Sartorius) for Biolayer Interferometry.
as §2, with “NO:264)” for “NO: 264)”

[2] = target: T2, mouse ALPPL2 (Mus musculus, UniProt P24823); assay: BLI cross-species reactivity, mouse ALPPL2; assay type: binding; conditions: VHH-hFc, KD apparent
T2 construct: made in house
T2 sequence (P24823 with tags, fused parts or gaps): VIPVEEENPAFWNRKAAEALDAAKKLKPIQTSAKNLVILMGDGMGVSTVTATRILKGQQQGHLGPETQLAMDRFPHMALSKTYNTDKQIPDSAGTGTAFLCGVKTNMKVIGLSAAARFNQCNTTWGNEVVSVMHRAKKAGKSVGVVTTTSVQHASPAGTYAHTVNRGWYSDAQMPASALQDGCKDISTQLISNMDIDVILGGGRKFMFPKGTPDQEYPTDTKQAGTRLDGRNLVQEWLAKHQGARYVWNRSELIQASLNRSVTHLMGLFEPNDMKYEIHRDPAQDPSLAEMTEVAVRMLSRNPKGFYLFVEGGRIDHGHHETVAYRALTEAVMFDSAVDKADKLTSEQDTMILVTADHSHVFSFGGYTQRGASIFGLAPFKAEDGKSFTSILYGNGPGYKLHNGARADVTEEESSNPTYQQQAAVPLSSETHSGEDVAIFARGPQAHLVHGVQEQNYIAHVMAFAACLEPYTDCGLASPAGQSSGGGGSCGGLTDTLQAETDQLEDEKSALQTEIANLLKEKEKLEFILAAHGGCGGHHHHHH
Procedure: as §2
(§3) To assess cross-species reactivity of the ALPP/ALPPL2 targeting VHH-hFc fusions, BLI was conducted using mouse ALPPL2 (NCBI #NP_031459), rhesus monkey ALPP (NCBI #XP_028687061) and cynomolgus monkey ALPP (NCBI #XP_045223825). Each of these were expressed as cysteine-stabilised leucine zipper fusions (SEQ ID NO: 271, SEQ ID NO: 272 and SEQ ID NO: 273). BLI was conducted as described above.

[3] = target: ALPP (Homo sapiens, UniProt P05187); assay: BLI binding kinetics, human ALPP immobilised on AR2G sensors (KD / KD apparent); conditions: VHH-hFc, KD apparent format
Chain of UniProt P05187 (P05187 with tags, fused parts or gaps): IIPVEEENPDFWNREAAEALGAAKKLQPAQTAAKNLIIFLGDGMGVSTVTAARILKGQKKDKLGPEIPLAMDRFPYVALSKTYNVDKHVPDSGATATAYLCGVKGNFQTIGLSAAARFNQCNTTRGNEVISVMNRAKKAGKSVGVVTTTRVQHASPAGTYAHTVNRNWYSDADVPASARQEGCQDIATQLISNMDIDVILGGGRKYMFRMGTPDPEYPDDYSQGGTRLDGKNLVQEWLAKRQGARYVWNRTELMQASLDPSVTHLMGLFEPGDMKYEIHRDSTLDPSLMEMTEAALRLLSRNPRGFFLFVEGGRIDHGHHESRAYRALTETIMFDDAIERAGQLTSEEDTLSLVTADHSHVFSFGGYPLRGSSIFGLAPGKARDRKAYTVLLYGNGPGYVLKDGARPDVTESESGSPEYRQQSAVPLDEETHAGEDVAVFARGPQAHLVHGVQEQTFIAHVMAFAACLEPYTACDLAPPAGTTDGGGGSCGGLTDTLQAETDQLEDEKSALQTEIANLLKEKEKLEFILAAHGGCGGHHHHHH
Procedure: as §1, §2
as §2, with “NO:264)” for “NO: 264)”

[4] = target: hALPL (Homo sapiens, UniProt P05186); assay: BLI binding to human ALPL; conditions: VHH-hFc
Chain of hALPL (P05186 with tags, fused parts or gaps): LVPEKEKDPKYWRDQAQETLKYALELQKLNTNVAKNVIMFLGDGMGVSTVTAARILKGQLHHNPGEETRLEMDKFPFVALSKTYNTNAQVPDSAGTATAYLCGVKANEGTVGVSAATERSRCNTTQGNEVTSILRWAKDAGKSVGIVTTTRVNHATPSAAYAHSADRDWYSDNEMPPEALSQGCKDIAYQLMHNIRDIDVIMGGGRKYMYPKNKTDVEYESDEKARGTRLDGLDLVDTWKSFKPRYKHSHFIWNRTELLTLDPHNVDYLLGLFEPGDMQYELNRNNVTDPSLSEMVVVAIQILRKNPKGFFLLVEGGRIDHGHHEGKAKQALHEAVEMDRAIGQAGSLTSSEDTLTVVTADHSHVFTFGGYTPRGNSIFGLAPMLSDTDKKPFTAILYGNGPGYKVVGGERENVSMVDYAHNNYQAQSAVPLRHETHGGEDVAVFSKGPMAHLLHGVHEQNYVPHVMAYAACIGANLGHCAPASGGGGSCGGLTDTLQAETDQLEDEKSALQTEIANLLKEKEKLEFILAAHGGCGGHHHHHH
Procedure: as §1, §2
as §2, with “NO:264)” for “NO: 264)”

[5] = system: rhesus monkey ALPP; assay: BLI cross-species reactivity, rhesus monkey ALPP; assay type: binding; conditions: VHH-hFc, KD apparent format
Procedure: as §2, §3

[6] = target: Human ALPPL2 (Homo sapiens, UniProt P10696); assay: BLI binding kinetics, human ALPPL2 immobilised on AR2G sensors (KD / KD apparent); conditions: VHH-hFc, KD apparent format
Chain of Human ALPPL2 (P10696 with tags, fused parts or gaps): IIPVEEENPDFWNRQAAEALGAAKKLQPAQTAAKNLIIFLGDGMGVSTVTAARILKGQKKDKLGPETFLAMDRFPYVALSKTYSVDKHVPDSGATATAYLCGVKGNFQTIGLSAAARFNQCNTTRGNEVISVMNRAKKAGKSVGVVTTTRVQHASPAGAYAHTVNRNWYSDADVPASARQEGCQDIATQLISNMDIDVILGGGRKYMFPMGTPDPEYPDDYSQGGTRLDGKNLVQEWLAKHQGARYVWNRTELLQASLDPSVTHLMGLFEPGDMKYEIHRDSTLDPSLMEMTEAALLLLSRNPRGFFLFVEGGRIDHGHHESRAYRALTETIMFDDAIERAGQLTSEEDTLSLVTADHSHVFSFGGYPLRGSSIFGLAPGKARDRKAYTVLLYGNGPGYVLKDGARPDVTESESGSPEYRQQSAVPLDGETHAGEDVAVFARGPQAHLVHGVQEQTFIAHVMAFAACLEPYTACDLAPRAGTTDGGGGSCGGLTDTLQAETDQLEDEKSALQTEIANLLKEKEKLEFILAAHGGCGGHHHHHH
Procedure: as §1, §2
as §2, with “NO:264)” for “NO: 264)”

[7] = target: T3, ALPI expressed on the surface of CHO cells (CHO-ALPI) (Homo sapiens, UniProt P09923); assay: Cell-surface binding by flow cytometry, CHO-ALPI; conditions: VHH-hFc proteins, flow cytometry, up to 350 nM
T3 construct: expressed in transfected cells
T3 sequence (P09923 20-503 limits assumed): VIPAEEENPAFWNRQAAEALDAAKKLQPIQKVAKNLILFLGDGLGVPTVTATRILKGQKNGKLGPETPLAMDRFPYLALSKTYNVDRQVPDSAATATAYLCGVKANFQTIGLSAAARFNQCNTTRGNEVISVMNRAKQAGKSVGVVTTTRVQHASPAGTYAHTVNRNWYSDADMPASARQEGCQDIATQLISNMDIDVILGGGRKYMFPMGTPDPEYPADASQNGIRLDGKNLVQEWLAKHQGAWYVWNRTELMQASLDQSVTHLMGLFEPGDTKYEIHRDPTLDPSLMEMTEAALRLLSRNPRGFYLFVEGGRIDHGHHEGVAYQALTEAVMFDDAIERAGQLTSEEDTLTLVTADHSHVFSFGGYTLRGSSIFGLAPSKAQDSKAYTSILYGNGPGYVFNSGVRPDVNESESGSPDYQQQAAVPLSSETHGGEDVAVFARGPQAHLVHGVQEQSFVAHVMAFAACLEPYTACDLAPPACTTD
Procedure: (§4) C-terminal His tagged VHH proteins were assessed for ALPP, ALPPL2, ALPI and ALPL cell-surface binding by flow cytometry. Binders encompassing different epitope bins were screened on CHO cells stably expressing ALPP, ALPPL2, ALPI or ALPL. High levels of cell-surface proteins expression were confirmed for each of the cell-lines by flow cytometry.
(§5) Cell surface binding of test agents to hALPP isoforms was characterized in four CHO-ALPP isoform stably transfected cell lines (CHO-ALPP, CHO-ALPPL2, CHO-ALPI and CHO-ALPL) and the resulting KDapp values determined. Adherent cells were detached from tissue culture flasks by incubating with 0.1% EDTA/PBS solution at 37° C. for ~10 minutes or until cells detached easily. Cells were re-suspended in ice-cold PBS/2% FCS in 15 ml tubes and centrifuged at 1700 rpm for 5 mins at 4° C. Supernatant was removed and the cell pellet re-suspended in PBS/2% FCS. A cell count was performed using a Chemometec Nucleocounter NC-202 and 2.5×10^5 cells were aliquoted per test sample into a 96 well plate. Cells were incubated with 100 μl of test agents at a range of concentrations, plus controls for 1 hr on ice. The sample plate was centrifuged at 1700 rpm for 5 mins at 4° C. The supernatant was removed, and a wash performed by re-suspending the cell pellets in 0.25 mL of ice-cold PBS/2% FCS using a multichannel pipette. Samples were again centrifuged at 1700 rpm for 5 min at 4° C. Supernatant was removed and two further washes performed as described. After the final wash and centrifugation step, excess liquid was removed by blotting the plate on tissue paper. Binding of VHH (His6 tagged) agents was determined by adding 100 μl of anti-x6His tag Ab (Abcam) per cell pellet sample as appropriate and incubating on ice for 30 mins. Wash steps were performed as described previously. Fitc-anti-mouse antibody (ThermoFisher) was used to detect binding of the VHH (His6 tagged) agents by incubating with the appropriate samples for 30 min on ice in the dark. Wash steps were performed as described previously. All cell pellets were finally re-suspended in […] of ice-cold PBS/2% FCS and left on ice in the dark prior to analysis on a Merck-Millipore Guava EasyCyte HT or Thermo Fisher Attune N×T flow cytometer.
(§6) VHH-hFc proteins were assessed for human ALPP, ALPPL2, ALPI and ALPL cell-surface binding by flow cytometry. Binders were screened on CHO cells stably expressing human ALPP, ALPPL2, ALPI or ALPL.
(§7) Cell surface binding of test agents to hALPP isoforms was characterized in four CHO-ALPP isoform transfectant cell lines (CHO-ALPP, CHO-ALPPL2, CHO-ALPI and CHO-ALPL) and the resulting KDapp values determined. Adherent cells were detached from tissue culture flasks by incubating with 0.1% EDTA/PBS solution at 37° C. for ~10 minutes or until cells detached easily. Cells were re-suspended in ice-cold PBS/2% FCS in 15 ml tubes and centrifuged at 1700 rpm for 5 mins at 4° C. Supernatant was removed and the cell pellet re-suspended in PBS/2% FCS. A cell count was performed using a Chemometec Nucleocounter NC-202 and 2.5×10^5 cells were aliquoted per test sample into a 96 well plate. Cells were incubated with 100 μl of test agents at a range of concentrations, plus controls for 1 hr on ice. The sample plate was centrifuged at 1700 rpm for 5 mins at 4° C. The supernatant was removed, and a wash performed by re-suspending the cell pellets in 0.25 mL of ice-cold PBS/2% FCS using a multichannel pipette. Samples were again centrifuged at 1700 rpm for 5 min at 4° C. Supernatant was removed and two further washes performed as described. After the final wash and centrifugation step, excess liquid was removed by blotting the plate on tissue paper. Binding of VHH-hFc agents was determined by adding 100 μl of Fitc-anti-human Ab (ThermoFisher) and incubating for 30 mins on ice in the dark. Wash steps were performed as described previously. […]

[8] = target: T4, ALPL expressed on the surface of CHO cells (CHO-ALPL) (Homo sapiens, UniProt P05186); assay: Cell-surface binding by flow cytometry, CHO-ALPL; conditions: VHH-hFc proteins
T4 construct: expressed in transfected cells
T4 sequence (P05186 18-501 limits assumed): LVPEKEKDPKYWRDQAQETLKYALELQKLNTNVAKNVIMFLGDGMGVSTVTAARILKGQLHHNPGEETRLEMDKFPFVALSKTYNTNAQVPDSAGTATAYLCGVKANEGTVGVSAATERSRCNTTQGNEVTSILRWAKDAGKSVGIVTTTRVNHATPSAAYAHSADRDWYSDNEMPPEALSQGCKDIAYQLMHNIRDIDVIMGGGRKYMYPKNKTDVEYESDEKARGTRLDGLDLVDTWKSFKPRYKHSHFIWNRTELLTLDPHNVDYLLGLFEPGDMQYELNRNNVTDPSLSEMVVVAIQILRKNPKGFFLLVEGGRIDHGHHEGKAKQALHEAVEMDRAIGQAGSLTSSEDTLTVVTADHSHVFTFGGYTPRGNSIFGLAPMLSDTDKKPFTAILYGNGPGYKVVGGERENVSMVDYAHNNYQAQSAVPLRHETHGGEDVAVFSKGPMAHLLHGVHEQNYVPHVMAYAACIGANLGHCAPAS
Procedure: as §4, §5, §6, §7

B1: F08-hFc (S239C): F08 VHH fused via [G4S]3 linker to human IgG1 Fc with S239C (protein)
chain: QVQLVESGGGSVQAGGSLRLSCAASGPSLSNYAMGWFRQAPGKEREFVAGISWGGGRTSYTDSVKGRFTISRDNAKNTVYLQMNNLKPEDTGVYYCAGRYGRGRNVEYEYDYWGQGTQVTVSSGGGGSGGGGSGGGGS[human IgG1 Fc with changes not spelt out]
hALPI [1]: Low level binding
mALPPL2 KD [2]: No Binding
hALPP Ka [3]: 192000 M⁻¹ s⁻¹
hALPP Kd [3]: <1e-07 s⁻¹
hALPL [4]: No binding
rmALPP Ka [5]: 297000 M⁻¹ s⁻¹
rmALPP Kd [5]: <1e-07 s⁻¹

B2: D04-hFc (S239C): D04 VHH fused via [G4S]3 linker to human IgG1 Fc with S239C (protein)
chain: QVQLVESGGGLVQPGGSLRLSCAASESTFSINVMGWYRQAPGKQRELVATITSGDITNYADSVKGRFTISRDNAENTVYLRTNSLKPEDTAVYYCNARGEYHSGNEYDYWGQGTQVTVSSGGGGSGGGGSGGGGS[human IgG1 Fc with changes not spelt out]
hALPI [1]: No binding
mALPPL2 KD [2]: No Binding
hALPP Ka [3]: 311000 M⁻¹ s⁻¹
hALPP Kd [3]: 0.00000665 s⁻¹
hALPL [4]: No binding
rmALPP Ka [5]: 672000 M⁻¹ s⁻¹
rmALPP Kd [5]: <1e-07 s⁻¹
hALPPL2 Ka [6]: 104000 M⁻¹ s⁻¹
hALPPL2 Kd [6]: 0.000239 s⁻¹

B3: D10 (G4S)1 hFc (S239C): D10 VHH fused via [G4S]1 linker to human IgG1 Fc with S239C (SEQ ID NO: 103) (protein)
chain: QVQLVESGGGLVQPGGSLRLSCAASGSIFSVNTMGWYRQAPGKQRDLVAVATSGGTIHYADSVKGRFTISRDNAKNTVYLQMNSLKPEDTAVYYCNLVVPYGMIAGDHDYWGQGTKVTVSSGGGGS[human IgG1 Fc with changes not spelt out]
KDapp CHO-ALPI [7]: No binding
KDapp CHO-ALPL [8]: No binding
